Our source for the relative growth values is the supplement of paper PMC9446081.

Structures are written as SMILES. Out of some 39,000 compounds screened, about 220 (0.56%) showed activity. This is one part of the list.
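Also: static incubation at 37 °C against the wild-type strain, values averaged over two biological replicates.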

For this test, the system named is Escherichia coli K-12 BW25113. Put plainly: relative growth (OD600 normalised to plate interquartile mean) (fraction); higher = less growth inhibition, active = 0.2 or less. The note with it: 50 µM; LB; incubation time: overnight (16-24 h).
On to `C[C@H]1CN([C@@H](C)CO)C(=O)Cc2cc(NC(=O)c3ccncc3)ccc2O[C@@H]1CN(C)Cc1ccncc1`, for which the relative growth is inactive: 1.01.

As to `C[C@@H]1CN([C@@H](C)CO)S(=O)(=O)c2ccc(C#CC3CC3)cc2O[C@@H]1CN(C)Cc1ccccc1F`, the relative growth is inactive: 1.01.

Turning to `CC(C)NC(=O)N(C)C[C@H]1Oc2ccc(NC(=O)CCC(F)(F)F)cc2C(=O)N([C@H](C)CO)C[C@H]1C`, the relative growth is inactive: 0.973.

As to `C[C@H]1CN([C@@H](C)CO)C(=O)c2cc(NC(=O)Cn3cnnn3)ccc2O[C@H]1CN(C)Cc1ccncc1`, the relative growth is inactive: 1.

Take `Cn1nc(O)c(=O)[nH]c1=S`: the relative growth was inactive: 0.992.

Regarding `COCCOC(=O)N1C(=O)[C@@]2(c3cc(C#CCCO)ccc31)[C@H](C(=O)Nc1nc3ccccc3s1)[C@H]1C(=O)O[C@H](c3ccccc3)[C@H](c3ccccc3)N1[C@@H]2c1ccc(O)cc1`, the relative growth was inactive: 1.02.

For `Cc1noc(C)c1S(=O)(=O)Nc1ccc2c(c1)C(=O)N([C@@H](C)CO)C[C@H](C)[C@@H](CN(C)Cc1ccc(C(=O)Nc3ccccc3N)cc1)OCCCC[C@@H](C)O2`, the relative growth was inactive: 0.95.

With `CC(O)CC(C)(C)O` (configuration not stated), the relative growth is inactive: 0.989.

Turning to `CC(C)NC(=O)Nc1ccc2c(c1)C(=O)N([C@H](C)CO)C[C@H](C)[C@H](CN(C)C(=O)Nc1ccccc1)OCCCC[C@@H](C)O2`, the relative growth was inactive: 0.995.

For `CCCNC(=O)N[C@H]1CC[C@@H](CC(=O)N2CCN(C)CC2)O[C@@H]1CO`, the relative growth was inactive: 1.01.

Consider `O=C(C[C@H]1CC[C@H]2[C@@H](COC[C@@H](O)CN2S(=O)(=O)c2cccc(Cl)c2)O1)N1CCOCC1`, for which the relative growth was inactive: 1.01.

As to `C[C@H]1CN([C@@H](C)CO)C(=O)c2cccc(NC(=O)C3CCOCC3)c2O[C@@H]1CN(C)Cc1ccncc1`, the relative growth is inactive: 1.03.

As for `C[C@H](CO)N1C[C@H](C)[C@@H](CN(C)Cc2ccc(Oc3ccccc3)cc2)Oc2ccc(NC(=O)Cc3cn(C)c4ccccc34)cc2CC1=O`, the relative growth was inactive: 1.04.

`COc1ccc(C#Cc2cnc3c(c2)C(=O)N([C@@H](C)CO)C[C@H](C)[C@@H](CN(C)C(=O)CN(C)C)O3)cc1`: the relative growth was inactive: 1.08.

Consider `C[C@H](CO)N1C[C@H](C)[C@H](CN(C)S(=O)(=O)c2cn(C)cn2)Oc2ccc(NS(=O)(=O)c3ccccc3)cc2C1=O`, for which the relative growth was inactive: 0.978.

In the case of `C[C@H]1CN([C@@H](C)CO)C(=O)Cc2cc(NC(=O)Cc3cn(C)c4ccccc34)ccc2O[C@H]1CN(C)CC1CCCCC1`, the relative growth is inactive: 0.984.

`Cc1noc(C)c1NC(=O)N(C)C[C@H]1OCCCC[C@H](C)Oc2ccc(NC(=O)CCC(F)(F)F)cc2C(=O)N([C@H](C)CO)C[C@@H]1C`: the relative growth is inactive: 0.968.

For the molecule `CCS(=O)(=O)N1C[C@]2(CCN(CC2)C(=O)Nc2c(noc2C)C)c2c(n(c3cc(ccc23)OC)C)[C@@H]1CO`, the relative growth is inactive: 1.01.

Take `C[C@@H]1CN([C@H](C)CO)C(=O)c2cc(NC(=O)Nc3ccc(C(F)(F)F)cc3)ccc2O[C@H]1CN(C)C(=O)Nc1cccc2ccccc12`: the relative growth was inactive: 1.02.

As for `C=CC[C@@H](CC(=O)NCCO)C(=O)NC[C@H](OC(=O)[C@H](CC=C)CC(=O)OC(C)(C)C)c1ccccc1`, the relative growth is inactive: 0.981.

For `C[C@H]1CC[C@@H]2C(C(=O)O[C@H]3[C@H]4O[C@@]4(C)[C@H]4[C@@H](O[C@H]5O[C@@H](CO)[C@@H](O)[C@@H](O)[C@@H]5O)OC=C[C@@]34O)=CO[C@H](O[C@H]3O[C@@H](CO)[C@@H](O)[C@@H](O)[C@@H]3O)[C@@H]21`, the relative growth was inactive: 0.986.

On to `O=C(C[C@H]1C[C@H]2c3cc(NS(=O)(=O)c4ccc(F)cc4)ccc3O[C@H]2[C@@H](CO)O1)N1CCCCC1`, for which the relative growth is inactive: 1.

`COCC(=O)N1CC(=O)N2[C@H](CO)[C@H](c3ccc(C#Cc4cccnc4)cc3)[C@H]2C1`: the relative growth is inactive: 1.04.

Turning to `C[C@H]1CN([C@@H](C)CO)C(=O)c2cc(NS(=O)(=O)c3ccccc3)ccc2O[C@H]1CN(C)S(=O)(=O)c1ccc(F)cc1`, the relative growth was inactive: 0.989.

For the molecule `C[C@@H]1CN([C@@H](C)CO)C(=O)Cc2cc(NC(=O)Nc3ccc(C(F)(F)F)cc3)ccc2O[C@H]1CN(C)C(=O)Nc1cccc2ccccc12`, the relative growth was inactive: 1.03.

For the molecule `CCN1C(=O)[C@H]2[C@H](O)CS[C@H]2C1=O`, the relative growth was inactive: 0.94.

As for `C[C@@H]1CN([C@@H](C)CO)C(=O)c2cccc(NC(=O)Nc3ccc4c(c3)OCO4)c2O[C@@H]1CN(C)C(=O)Nc1ccc(C(F)(F)F)cc1`, the relative growth was inactive: 1.01.

As to `COCC(=O)Nc1ccc2c(c1)OC[C@H](C)N(Cc1ccccc1OC)C[C@@H](C)[C@H](OC)CN(C)C2=O`, the relative growth is inactive: 0.984.

In the case of `C[C@@H]1CCCCO[C@H](CN(C)C(=O)CCCN(C)C)[C@H](C)CN([C@@H](C)CO)C(=O)c2cc(NS(=O)(=O)c3cn(C)cn3)ccc2O1`, the relative growth was inactive: 0.982.

`Cc1ccc(S(=O)(=O)Nc2ccc3c(c2)C(=O)N([C@@H](C)CO)C[C@@H](C)[C@@H](CN(C)Cc2ccc(C(=O)O)cc2)OCCCC[C@@H](C)O3)cc1`: the relative growth is inactive: 0.97.

Turning to `C[C@@H]1CCCCO[C@H](CN(C)C(=O)Nc2ccc(F)cc2)[C@H](C)CN([C@@H](C)CO)C(=O)c2cc(NS(=O)(=O)c3ccccc3)ccc2O1`, the relative growth is inactive: 1.05.

On to `C[C@@H]1CN([C@H](C)CO)C(=O)c2cccc(NC(=O)Nc3cccc4ccccc34)c2O[C@H]1CN(C)C(=O)Nc1ccc2c(c1)OCO2`, for which the relative growth is inactive: 1.02.

Regarding `CCCC(=O)Nc1ccc2c(c1)C(=O)N(C)C[C@H](OC)[C@H](C)CN(S(=O)(=O)c1cn(C)cn1)[C@@H](C)CO2`, the relative growth is inactive: 0.985.

On to `Cc1ccc(S(=O)(=O)Nc2cccc3c2O[C@H](CN(C)S(=O)(=O)c2ccc(F)cc2)[C@@H](C)CN([C@H](C)CO)C3=O)cc1`, for which the relative growth was inactive: 1.03.

As to `CN1CCN(S(=O)(=O)c2ccc(CN)cc2)CC1`, the relative growth was inactive: 1.05.

Regarding `CO[C@@H]1CN(C)C(=O)c2ccc(NS(=O)(=O)c3cn(C)cn3)cc2OC[C@H](C)N(CCC(F)(F)F)C[C@H]1C`, the relative growth was inactive: 1.05.

Turning to `COc1ccc2c3c([nH]c2c1)[C@H](CO)N(C[C@]13CN(CCc2ccccc2)C1)C(=O)CN1CCOCC1`, the relative growth was inactive: 0.958.
